# Measured values reported in ChEMBL document CHEMBL5308541, “MAIP: An Open-Source Tool to Enrich High-Throughput Screening Output and Identify Novel, Druglike Molecules with Antimalarial Activity” (ACS Med Chem Lett, 2023).
# The campaign covered roughly 150,000 compounds. About 540 (0.36%) showed an effect of 50% or more. This is one part of the list.
# Tested on: Plasmodium falciparum
# Assay: Primary screen in NF54 nanoGlo assay, in single point, at 2uM, 72h; a lower Z score goes with more inhibition
# Format: functional, Erythrocyte
# Conditions: timepoint 72 hour
SMILES,% Inhibition,Z score
Cc1cc(-c2nc3cc(C(C)(C)C)ccc3[nH]2)c(C)n1-n1cnnc1,13%,-2.25
CC(C)N1C2CCC1CN(c1cncc(N3CCC4CCC(C3)N4C(C)C)n1)CC2,-11%,2.05
C=C(C)CS(=O)(=O)N1CCN(c2cnn(C)c2)C(=O)C1,-3%,0.62
Cc1ccccc1-c1cnc(-c2ccncc2)nc1[C@H]1CCCN(Cc2ccc(F)c(F)c2)C1,16%,-2.86
NCCc1nc(N2CCC[C@H]2c2nc(-c3ccncc3)no2)c2ccccc2n1,-12%,1.87
O[C@H]1CCCN(C2CCN(Cc3ccc4c(c3)OC(F)(F)O4)CC2)C1,-5%,0.87
COc1ccc(-c2ccc(NC3CCCC3)nn2)cc1S(=O)(=O)N1CCOCC1,2%,-0.33
O=S(=O)(c1c[nH]c2ncccc12)N1CCCC[C@H]1c1nc(-c2cccc(F)c2)c[nH]1,-2%,0.35
CCc1noc(CNC2CCN(c3cccc(-c4cccc(F)c4)c3)CC2)n1,-11%,1.83
COc1cc(-c2onc(N3CCC(N4CCN(CCO)CC4)CC3)c2C(=O)O)ccc1F,-2%,0.32
Cc1c(-c2cc(-c3nc4ccc(Cl)cc4[nH]3)nc(N)c2C#N)cnn1C,5%,-1.11
CC(C)N1CCC(CN2CCN3CCN(C)C[C@H]3C2)CC1,2%,-0.5
O=C(Nc1cccc(CN2CCCC2)c1)[C@H]1CCCN(C2CCOCC2)C1,0%,0.1
Cc1cc(C)c2nc(CN3CCCC[C@@H]3CCN3CCN(C)CC3)cc(O)c2c1,-2%,0.37
C[C@@H](CO)n1ncc2cc(N(C)C)ccc2c1=O,-9%,1.78
O=C(c1cnn2c1OCCC2)N1CCC(N2CCC(Oc3ccc(C(F)(F)F)cn3)CC2)CC1,-4%,0.56
Oc1ccc(-c2c(-c3ccccc3)ncn2CCCc2nnn[nH]2)cc1Cl,-4%,0.7
CC(C)(C)OC(=O)N1CCCC1C1COCCC1NC1CCN(C(=O)c2ccco2)CC1 (configuration not stated),-11%,1.86
O=C(NC1CNCC1O)c1cccc(-c2cccc(OC(F)(F)F)c2)c1 (configuration not stated),-5%,0.88
COc1ccc(NC(=O)CN(C)C(=O)c2c[nH]c3ccccc23)cc1Cl,2%,-0.39
CCc1ccc(Oc2cc(N3CCC(C(=O)N4CCN(C5CCCCC5)CC4)CC3)ncn2)cc1,4%,-0.57

SMILES,% Inhibition,Z score
CNC(=O)COc1ccc(CN2CCN(C)c3ccc(Cl)cc32)cc1OC,-12%,2.35
CC(C)(NCCCNS(C)(=O)=O)c1cccc(C(F)(F)F)c1,-9%,1.97
CC(C)c1oncc1NC(=O)Cc1c[nH]c2ncccc12,0%,0.02
O=C(NC[C@H]1CCCO1)c1cccc(CNc2ncnc3[nH]ccc23)c1,-4%,0.87
CN(Cc1cccc2[nH]ccc12)c1nc(=O)c2cn[nH]c2[nH]1,-1%,0.19
Fc1cc2[nH]cc(CCNc3nc(C4CCOCC4)ns3)c2cc1Cl,-16%,2.36
O=C(N[C@@H]1COC2(CCNCC2)C1)c1cccc(-c2cccc(F)c2)c1,-8%,1.69
c1ccc(C2CCN(c3nccc(NC4CCCCC4)n3)CC2)cc1,-7%,1.11
Cc1nc(CN2CCC(CNc3ncnc4[nH]ncc34)CC2)oc1C,-12%,2.32
COc1cccc2[nH]cc(CC(=O)NC3CCC(Oc4cnccn4)CC3)c12 (configuration not stated),-3%,0.47
O=C(c1[nH]nc2c1COc1ccccc1-2)N1CCC2(CC1)C[C@@H](CCOc1ccncc1)CCO2,-6%,1.04
C[C@@H](c1ccccc1Cl)N1CCN(c2ncnc3[nH]ccc23)CC1,4%,-0.74
CCN(Cc1cnc(-c2ccccc2C)nc1)CC1CCN(C2CCN(C)CC2)CC1,-7%,1.18
O=C(c1cccc2c(=O)c3ccccc3[nH]c12)N1CCCC2(CCNCC2)CC1,-1%,0.25
Cc1cc(Br)oc1C(=O)N[C@H]1CCN(CC(F)(F)F)C1=O,-11%,1.66
CCCC[C@@H](CN)NS(=O)(=O)N1CCCCCC1,-10%,1.67
C#CCOc1cc(F)ccc1NS(=O)(=O)c1ccc2c(c1)C(=O)NCC2,-3%,0.61
Cc1cc(CC(C)NC(=O)N2CCCCCC2c2ccc(C)o2)n[nH]1 (configuration not stated),8%,-1.68
COc1ccccc1N1CCC(Nc2ncccc2-c2nc(C)no2)CC1,-3%,0.46
O=C(C[C@H](O)c1cc(Cl)cc(Cl)c1)N1CCN(CCN2CCCOCC2)CC1,-3%,0.52
